T1: human TRIM21 PRYSPRY domain with N-terminal 6xHis tag (human)
T1 construct: Expressed from pET28a in E. coli; also called hTRIM21
T1 chain: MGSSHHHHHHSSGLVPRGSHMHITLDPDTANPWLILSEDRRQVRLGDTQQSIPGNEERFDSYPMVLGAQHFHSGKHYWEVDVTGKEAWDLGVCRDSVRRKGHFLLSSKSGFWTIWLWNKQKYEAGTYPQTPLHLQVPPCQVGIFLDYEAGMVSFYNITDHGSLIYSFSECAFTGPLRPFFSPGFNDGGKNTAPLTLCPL

T2: mouse TRIM21 PRYSPRY domain with N-terminal 6xHis tag (mouse)
T2 construct: Expressed from pET28a in E. coli; also called mTRIM21
T2 chain: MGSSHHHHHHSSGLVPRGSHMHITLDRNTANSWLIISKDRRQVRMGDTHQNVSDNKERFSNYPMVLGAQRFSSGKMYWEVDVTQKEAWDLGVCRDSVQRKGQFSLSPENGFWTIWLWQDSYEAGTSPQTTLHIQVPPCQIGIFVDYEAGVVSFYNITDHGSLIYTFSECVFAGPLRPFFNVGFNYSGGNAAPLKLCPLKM

B1: MRAH-G1d/MRAL-KT0 S440R (antibody)
heavy: QVQLQESGPGLVRPSQTLSLTCTVSGYSITSDHAWSWVRQPPGRGLEWIGYISYSGITTYNPSLKSRVTMLRDTSKNQFSLRLSSVTAADTAVYYCARSLARTTAMDYWGQGSLVTVSS[human IgG1 constant region with S440R (EU numbers) omitted here]
light: DIQMTQSPSSLSASVGDRVTITCRASQDISSYLNWYQQKPGKAPKLLIYYTSRLHSGVPSRFSGSGSGTDFTFTISSLQPEDIATYYCQQGNTLPYTFGQGTKVEIKRTVAAPSVFIFPPSDEQLKSGTASVVCLLNNFYPREAKVQWKVDNALQSGNSQESVTEQDSKDSTYSLSSTLTLSKADYEKHKVYACEVTHQGLSSPVTKSFNRGEC
B2: MRAH-G1d/MRAL-KT0 S440T (antibody)
heavy: QVQLQESGPGLVRPSQTLSLTCTVSGYSITSDHAWSWVRQPPGRGLEWIGYISYSGITTYNPSLKSRVTMLRDTSKNQFSLRLSSVTAADTAVYYCARSLARTTAMDYWGQGSLVTVSS[human IgG1 constant region with S440T (EU numbers) omitted here]
light: B1 light
B3: MRAH-G1d/MRAL-KT0 S440V (antibody)
heavy: QVQLQESGPGLVRPSQTLSLTCTVSGYSITSDHAWSWVRQPPGRGLEWIGYISYSGITTYNPSLKSRVTMLRDTSKNQFSLRLSSVTAADTAVYYCARSLARTTAMDYWGQGSLVTVSS[human IgG1 constant region with S440V (EU numbers) omitted here]
light: B1 light
B4: MRAH-G1d/MRAL-KT0 S440W (antibody)
heavy: QVQLQESGPGLVRPSQTLSLTCTVSGYSITSDHAWSWVRQPPGRGLEWIGYISYSGITTYNPSLKSRVTMLRDTSKNQFSLRLSSVTAADTAVYYCARSLARTTAMDYWGQGSLVTVSS[human IgG1 constant region with S440W (EU numbers) omitted here]
light: B1 light
B5: MRAH-G1d/MRAL-KT0 T437F (antibody, human IgG1, kappa)
heavy: QVQLQESGPGLVRPSQTLSLTCTVSGYSITSDHAWSWVRQPPGRGLEWIGYISYSGITTYNPSLKSRVTMLRDTSKNQFSLRLSSVTAADTAVYYCARSLARTTAMDYWGQGSLVTVSS[human IgG1 constant region with T437F (EU numbers) omitted here]
light: B1 light
B6: MRAH-G1d/MRAL-KT0 T437H (antibody, human IgG1, kappa)
heavy: QVQLQESGPGLVRPSQTLSLTCTVSGYSITSDHAWSWVRQPPGRGLEWIGYISYSGITTYNPSLKSRVTMLRDTSKNQFSLRLSSVTAADTAVYYCARSLARTTAMDYWGQGSLVTVSS[human IgG1 constant region with T437H (EU numbers) omitted here]
light: B1 light
B7: MRAH-G1d/MRAL-KT0 T437K (antibody, human IgG1, kappa)
heavy: QVQLQESGPGLVRPSQTLSLTCTVSGYSITSDHAWSWVRQPPGRGLEWIGYISYSGITTYNPSLKSRVTMLRDTSKNQFSLRLSSVTAADTAVYYCARSLARTTAMDYWGQGSLVTVSS[human IgG1 constant region with T437K (EU numbers) omitted here]
light: B1 light
B8: MRAH-G1d/MRAL-KT0 T437L (antibody, human IgG1, kappa)
heavy: QVQLQESGPGLVRPSQTLSLTCTVSGYSITSDHAWSWVRQPPGRGLEWIGYISYSGITTYNPSLKSRVTMLRDTSKNQFSLRLSSVTAADTAVYYCARSLARTTAMDYWGQGSLVTVSS[human IgG1 constant region with T437L (EU numbers) omitted here]
light: B1 light
B9: MRAH-G1d/MRAL-KT0 T437Q (antibody, human IgG1, kappa)
heavy: QVQLQESGPGLVRPSQTLSLTCTVSGYSITSDHAWSWVRQPPGRGLEWIGYISYSGITTYNPSLKSRVTMLRDTSKNQFSLRLSSVTAADTAVYYCARSLARTTAMDYWGQGSLVTVSS[human IgG1 constant region with T437Q (EU numbers) omitted here]
light: B1 light
B10: MRAH-G1d/MRAL-KT0 T437R (antibody, human IgG1, kappa)
heavy: QVQLQESGPGLVRPSQTLSLTCTVSGYSITSDHAWSWVRQPPGRGLEWIGYISYSGITTYNPSLKSRVTMLRDTSKNQFSLRLSSVTAADTAVYYCARSLARTTAMDYWGQGSLVTVSS[human IgG1 constant region with T437R (EU numbers) omitted here]
light: B1 light
B11: MRAH-G1d/MRAL-KT0 T437S (antibody, human IgG1, kappa)
heavy: QVQLQESGPGLVRPSQTLSLTCTVSGYSITSDHAWSWVRQPPGRGLEWIGYISYSGITTYNPSLKSRVTMLRDTSKNQFSLRLSSVTAADTAVYYCARSLARTTAMDYWGQGSLVTVSS[human IgG1 constant region with T437S (EU numbers) omitted here]
light: B1 light
B12: MRAH-G1d/MRAL-KT0 T437Y (antibody, human IgG1, kappa)
heavy: QVQLQESGPGLVRPSQTLSLTCTVSGYSITSDHAWSWVRQPPGRGLEWIGYISYSGITTYNPSLKSRVTMLRDTSKNQFSLRLSSVTAADTAVYYCARSLARTTAMDYWGQGSLVTVSS[human IgG1 constant region with T437Y (EU numbers) omitted here]
light: B1 light

Target: T1, human TRIM21 PRYSPRY domain with …
Assay: SPR, Ab captured on Protein L, 100 nM hTRIM21

In order of rising “hTRIM21 binding level ratio (variant/control antibody)” value:
1. B10  0.068
2. B7  0.11
3. B8  0.233
4. B1  0.602
5. B9  0.634
6. B6  0.655
7. B5  0.728
8. B12  0.746
9. B11  0.852
10. B3  0.908
11. B2  0.98
12. B4  1.11

Target: T2, mouse TRIM21 PRYSPRY domain with …
Assay: SPR, Ab captured on Protein L, 100 nM mTRIM21

In order of rising “mTRIM21 binding level ratio (variant/control antibody)” value:
1. B8  2.15
2. B9  2.16
3. B5  2.18
4. B6  2.18
5. B7  2.18
6. B3  2.21
7. B10  2.25
8. B12  2.27
9. B2  2.45
10. B11  2.52
11. B1  2.65
12. B4  2.66

Each binder was assayed against T3, human FcRn (human, UniProt P55899 partial chain; P61769 partial chain, limits assumed) (assay: SPR pH 6.0, Ab captured on Protein L, 1 uM hFcRn).
T3 construct: also called hFcRn
T3 sequence (P55899 24-290 limits assumed, form in doubt, chain 1 of 2): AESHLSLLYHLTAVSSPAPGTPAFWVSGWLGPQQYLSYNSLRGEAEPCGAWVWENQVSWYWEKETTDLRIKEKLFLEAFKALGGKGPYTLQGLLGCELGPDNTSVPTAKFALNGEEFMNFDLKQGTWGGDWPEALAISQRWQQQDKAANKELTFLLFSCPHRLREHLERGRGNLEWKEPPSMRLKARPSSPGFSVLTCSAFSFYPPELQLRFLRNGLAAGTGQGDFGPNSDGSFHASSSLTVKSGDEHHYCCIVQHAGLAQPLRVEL
T3 sequence (P61769 21-119 limits assumed, form in doubt, chain 2 of 2, further chain): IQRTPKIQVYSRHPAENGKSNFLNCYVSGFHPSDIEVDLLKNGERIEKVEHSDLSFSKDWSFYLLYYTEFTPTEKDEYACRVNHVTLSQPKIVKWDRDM

In order of falling “hFcRn binding level ratio (variant/control antibody)” value:
1. B9  0.98
2. B11  0.97
3. B7  0.96
4. B1  0.95
5. B10  0.94
6. B4  0.93
7. B6  0.93
8. B2  0.92
9. B3  0.92
10. B8  0.86
11. B5  0.84
12. B12  0.84
